The results in this text go back to article PMC10575725.

Amino acid sequences for entries named in this document (tags omitted).
UniProt Q96P20: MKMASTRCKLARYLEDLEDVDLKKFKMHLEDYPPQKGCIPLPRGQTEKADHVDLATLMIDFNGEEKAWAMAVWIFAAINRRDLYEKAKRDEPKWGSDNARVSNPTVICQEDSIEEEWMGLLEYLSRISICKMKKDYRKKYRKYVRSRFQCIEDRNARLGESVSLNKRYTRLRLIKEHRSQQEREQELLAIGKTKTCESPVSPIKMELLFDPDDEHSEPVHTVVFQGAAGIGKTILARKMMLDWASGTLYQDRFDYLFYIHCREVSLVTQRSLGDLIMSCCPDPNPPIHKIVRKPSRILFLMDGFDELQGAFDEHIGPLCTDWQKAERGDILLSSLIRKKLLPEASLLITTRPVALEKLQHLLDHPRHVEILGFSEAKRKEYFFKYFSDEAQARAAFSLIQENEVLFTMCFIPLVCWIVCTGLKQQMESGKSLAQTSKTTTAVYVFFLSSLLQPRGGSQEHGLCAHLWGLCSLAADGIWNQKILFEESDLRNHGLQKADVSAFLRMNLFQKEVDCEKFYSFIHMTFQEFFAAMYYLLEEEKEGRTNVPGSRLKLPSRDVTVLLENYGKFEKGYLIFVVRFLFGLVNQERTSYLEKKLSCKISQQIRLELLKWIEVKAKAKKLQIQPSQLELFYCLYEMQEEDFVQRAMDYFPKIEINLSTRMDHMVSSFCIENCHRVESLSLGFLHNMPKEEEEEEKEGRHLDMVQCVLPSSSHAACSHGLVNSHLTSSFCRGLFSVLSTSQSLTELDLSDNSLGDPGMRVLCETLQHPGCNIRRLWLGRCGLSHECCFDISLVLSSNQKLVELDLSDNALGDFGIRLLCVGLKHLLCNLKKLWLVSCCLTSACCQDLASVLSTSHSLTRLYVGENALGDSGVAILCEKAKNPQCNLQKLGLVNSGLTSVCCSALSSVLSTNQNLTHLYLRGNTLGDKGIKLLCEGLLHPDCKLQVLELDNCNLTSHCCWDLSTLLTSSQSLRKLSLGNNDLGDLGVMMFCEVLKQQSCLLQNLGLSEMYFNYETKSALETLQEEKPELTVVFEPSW

Results are given in words; binding and its absence hold for the method and conditions named. In cells and extracts the contact can be indirect. Some entries that bind do so weakly or less than the wild type.

Assay [1] concerns the target T1, HERC6 (HECT domain- and RCC1-like domain-containing protein 6), endogenous, mouse peritoneal macrophages (mouse (endogenous in peritoneal macrophages)) (UniProt F2Z461).
T1 sequence: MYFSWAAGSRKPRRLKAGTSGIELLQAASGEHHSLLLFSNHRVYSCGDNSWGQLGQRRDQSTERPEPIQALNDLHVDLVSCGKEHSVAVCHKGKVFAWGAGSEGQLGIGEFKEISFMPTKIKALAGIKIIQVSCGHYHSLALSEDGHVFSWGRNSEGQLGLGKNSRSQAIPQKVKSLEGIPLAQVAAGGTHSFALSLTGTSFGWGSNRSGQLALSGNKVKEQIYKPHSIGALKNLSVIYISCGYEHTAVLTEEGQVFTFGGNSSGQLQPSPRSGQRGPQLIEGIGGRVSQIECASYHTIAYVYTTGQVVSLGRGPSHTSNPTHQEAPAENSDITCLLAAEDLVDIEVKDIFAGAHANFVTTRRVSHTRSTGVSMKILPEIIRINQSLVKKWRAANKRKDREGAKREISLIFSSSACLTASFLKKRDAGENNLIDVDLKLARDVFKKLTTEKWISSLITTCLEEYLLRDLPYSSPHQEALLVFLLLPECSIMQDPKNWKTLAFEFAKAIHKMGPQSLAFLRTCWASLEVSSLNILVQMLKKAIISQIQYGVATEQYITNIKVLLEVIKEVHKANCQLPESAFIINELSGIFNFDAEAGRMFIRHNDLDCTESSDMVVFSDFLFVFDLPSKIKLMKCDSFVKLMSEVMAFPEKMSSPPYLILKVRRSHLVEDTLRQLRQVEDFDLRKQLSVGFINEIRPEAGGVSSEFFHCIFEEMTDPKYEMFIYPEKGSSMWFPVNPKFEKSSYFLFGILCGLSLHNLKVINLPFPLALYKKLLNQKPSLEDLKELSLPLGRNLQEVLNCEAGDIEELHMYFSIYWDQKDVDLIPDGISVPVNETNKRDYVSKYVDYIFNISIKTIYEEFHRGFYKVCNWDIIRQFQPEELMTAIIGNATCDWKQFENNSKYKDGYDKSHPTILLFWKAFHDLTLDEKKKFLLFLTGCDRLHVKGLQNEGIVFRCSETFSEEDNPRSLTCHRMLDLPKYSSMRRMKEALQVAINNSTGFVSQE
As to the kind of experiment: co-IP; endogenous proteins in mouse peritoneal macrophages, LPS-stimulated or LPS-primed and ATP-activated; IP buffer 1.0% NP-40, 50 mM Tris-HCl pH 7.4, 50 mM EDTA, 150 mM NaCl.

In assay [2] the target is NLRP3, endogenous, THP-1 cells (human (endogenous in THP-1)) (UniProt Q96P20). The experiment in a line: co-IP; endogenous proteins in THP-1 cells, LPS-stimulated or LPS-primed and ATP-activated; IP buffer 1.0% NP-40, 50 mM Tris-HCl pH 7.4, 50 mM EDTA, 150 mM NaCl.

B1: CASP1, endogenous, mouse peritoneal macrophages (enzyme, UniProt P29452 1-402)
chain: MADKILRAKRKQFINSVSIGTINGLLDELLEKRVLNQEEMDKIKLANITAMDKARDLCDHVSKKGPQASQIFITYICNEDCYLAGILELQSAPSAETFVATEDSKGGHPSSSETKEEQNKEDGTFPGLTGTLKFCPLEKAQKLWKENPSEIYPIMNTTTRTRLALIICNTEFQHLSPRVGAQVDLREMKLLLEDLGYTVKVKENLTALEMVKEVKEFAACPEHKTSDSTFLVFMSHGIQEGICGTTYSNEVSDILKVDTIFQMMNTLKCPSLKDKPKVIIIQACRGEKQGVVLLKDSVRDSEEDFLTDAIFEDDGIKKAHIEKDFIAFCSSTPDNVSWRHPVRGSLFIESLIKHMKEYAWSCDLEDIFRKVRFSFEQPEFRLQMPTADRVTLTKRFYLFPGH
On to B1, for which the binding result in assay [1] is listed as “no binding”.

B2: HERC5, endogenous, THP-1 cells (enzyme, UniProt Q9UII4 1-1024)
chain: MERRSRRKSRRNGRSTAGKAAATQPAKSPGAQLWLFPSAAGLHRALLRRVEVTRQLCCSPGRLAVLERGGAGVQVHQLLAGSGGARTPKCIKLGKNMKIHSVDQGAEHMLILSSDGKPFEYDNYSMKHLRFESILQEKKIIQITCGDYHSLALSKGGELFAWGQNLHGQLGVGRKFPSTTTPQIVEHLAGVPLAQISAGEAHSMALSMSGNIYSWGKNECGQLGLGHTESKDDPSLIEGLDNQKVEFVACGGSHSALLTQDGLLFTFGAGKHGQLGHNSTQNELRPCLVAELVGYRVTQIACGRWHTLAYVSDLGKVFSFGSGKDGQLGNGGTRDQLMPLPVKVSSSEELKLESHTSEKELIMIAGGNQSILLWIKKENSYVNLKRTIPTLNEGTVKRWIADVETKRWQSTKREIQEIFSSPACLTGSFLRKRRTTEMMPVYLDLNKARNIFKELTQKDWITNMITTCLKDNLLKRLPFHSPPQEALEIFFLLPECPMMHISNNWESLVVPFAKVVCKMSDQSSLVLEEYWATLQESTFSKLVQMFKTAVICQLDYWDESAEENGNVQALLEMLKKLHRVNQVKCQLPESIFQVDELLHRLNFFVEVCRRYLWKMTVDASENVQCCVIFSHFPFIFNNLSKIKLLHTDTLLKIESKKHKAYLRSAAIEEERESEFALRPTFDLTVRRNHLIEDVLNQLSQFENEDLRKELWVSFSGEIGYDLGGVKKEFFYCLFAEMIQPEYGMFMYPEGASCMWFPVKPKFEKKRYFFFGVLCGLSLFNCNVANLPFPLALFKKLLDQMPSLEDLKELSPDLGKNLQTLLDDEGDNFEEVFYIHFNVHWDRNDTNLIPNGSSITVNQTNKRDYVSKYINYIFNDSVKAVYEEFRRGFYKMCDEDIIKLFHPEELKDVIVGNTDYDWKTFEKNARYEPGYNSSHPTIVMFWKAFHKLTLEEKKKFLVFLTGTDRLQMKDLNNMKITFCCPESWNERDPIRALTCFSVLFLPKYSTMETVEEALQEAINNNRGFG
For the molecule B2, in assay [2], the binding result is listed as “binds”.
